# A collection of fitness landscapes (doi:10.1016/j.celrep.2020.107928)
# In all, about 81,000 sequences were measured (“one-hybrid fitness for binding parS DNA”: median about -0.17, highest 2% from about 0.51 on). Some of the results follow.
# B1: Caulobacter ParB omega fusion; a variant is named by its letters at X, in order, B8GW30 (parent)
# chain: MESVVVGEPGMSEGRRGLGRGLSALLGEVDAAPAQAPGEQLGGSREAPIEILQRNPDQPRRTFREEDLEDLSNSIREKGVLQPILVRPSPDTAGEYQIVAGERAWRAAQRAGLKTVPIMVRELDDLAVLEIGIIENVQRADLNVLEEALSYKVLMEKFERTQENIAQTIGKSXSHVANXMRLLXLPDEVQSYLVSGELTAXHARAIAAAADPVALAKQIIEGGLSVRETEALARKAPNLSAGKSKGGRPPRVKDTDTQALESDLSSVLGLDVSIDHRGSTGTLTITYATLEQLDDLCNRLTRGI
# Variants of: B1
# Experiment: one-hybrid fitness for binding parS DNA (scaled: cognate 1, non-cognate 0); higher = stronger binding
# Conditions: with parS DNA site
# In short: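 Bacterial one-hybrid selection in E. coli USO rpoZ- hisB- pyrF- with a HIS3 reporter carrying the site 19 bp from the promoter, screening Caulobacter ParB libraries with four specificity codons randomised (NNS). Cells grew 48 hours at 37°C on M9-minus-histidine plus 0.1 mM IPTG and 5 mM 3-AT. Plasmids before and after selection were Illumina-sequenced, three replicate libraries pooled, and variants under 10 reads dropped. Fitness is the log change in variant-to-wild-type read ratio, rescaled to cognate 1, non-cognate 0.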
row,Variant,one-hybrid fitness for binding parS DNA
1,NHSK,≤ 0.2
2,PCHG,≤ 0.2
3,RIDE,≤ 0.2
4,YTTL,≤ 0.2
5,GLNL,≤ 0.2
6,WRTY,≤ 0.2
7,RLWQ,≤ 0.2
8,HMTL,≤ 0.2
9,DQPL,≤ 0.2
10,EPPL,≤ 0.2
11,AMYH,≤ 0.2
12,WGLA,≤ 0.2
13,SNVE,≤ 0.2
14,HFNI,≤ 0.2
15,YIDK,0.28
16,QHCC,≤ 0.2
17,HYIT,≤ 0.2
18,CLGT,≤ 0.2
19,DLRS,≤ 0.2
20,RKFE,≤ 0.2
21,SVIE,≤ 0.2
22,KGNS,≤ 0.2
23,SIGF,≤ 0.2
24,RDTL,≤ 0.2

row,Variant,one-hybrid fitness for binding parS DNA
1,IEAC,≤ 0.2
2,WRVL,≤ 0.2
3,GEGG,≤ 0.2
4,PEIP,≤ 0.2
5,VGAV,≤ 0.2
6,HTNT,≤ 0.2
7,YSKG,≤ 0.2
8,AWCT,≤ 0.2
9,TATS,≤ 0.2
10,TPAD,≤ 0.2
11,MQTD,≤ 0.2
12,CPLV,≤ 0.2
13,RLIM,0.268
14,WVTD,≤ 0.2
15,PGIY,≤ 0.2
16,TWDL,≤ 0.2
17,RMNR,≤ 0.2
18,SNAR,≤ 0.2
19,MDCS,≤ 0.2
20,LFVS,≤ 0.2
21,QDHY,≤ 0.2
22,KRTY,≤ 0.2
23,DCTG,≤ 0.2
24,HVSV,≤ 0.2

row,Variant,one-hybrid fitness for binding parS DNA
1,VPVL,≤ 0.2
2,MCSC,≤ 0.2
3,TPET,≤ 0.2
4,VWQS,≤ 0.2
5,SSVE,≤ 0.2
6,LLTY,≤ 0.2
7,VSPF,≤ 0.2
8,YKIK,≤ 0.2
9,NGIW,≤ 0.2
10,RLLL,≤ 0.2
11,EIGC,≤ 0.2
12,SANC,≤ 0.2
13,FWCS,≤ 0.2
14,RQKA,0.701
15,GGIT,≤ 0.2
16,EDAY,≤ 0.2
17,WPYE,≤ 0.2
18,PEPG,≤ 0.2
19,HMRI,≤ 0.2
20,TIAS,≤ 0.2
21,ICVG,≤ 0.2
22,HYPY,≤ 0.2
23,GIIS,≤ 0.2
24,YTEC,≤ 0.2

row,Variant,one-hybrid fitness for binding parS DNA
1,QDRA,≤ 0.2
2,TAPT,≤ 0.2
3,GSAD,≤ 0.2
4,TSER,≤ 0.2
5,TLHM,≤ 0.2
6,CTNW,≤ 0.2
7,FRTF,≤ 0.2
8,SGDG,≤ 0.2
9,KFVM,≤ 0.2
10,LIPR,≤ 0.2
11,YASD,≤ 0.2
12,SLRV,≤ 0.2
13,CTIG,≤ 0.2
14,RHHR,≤ 0.2
15,CNDS,≤ 0.2
16,CRVC,≤ 0.2
17,FTSV,≤ 0.2
18,VANV,≤ 0.2
19,GPLV,≤ 0.2
20,VSMT,≤ 0.2
21,DIMS,≤ 0.2
22,HIVG,≤ 0.2
23,TPIA,≤ 0.2
24,KRYE,≤ 0.2

row,Variant,one-hybrid fitness for binding parS DNA
1,NNLG,≤ 0.2
2,PTAC,≤ 0.2
3,MHKT,≤ 0.2
4,FSTF,≤ 0.2
5,WRMA,≤ 0.2
6,FQGR,≤ 0.2
7,IMQR,≤ 0.2
8,GCRV,≤ 0.2
9,AARG,≤ 0.2
10,PAAH,≤ 0.2
11,VATF,≤ 0.2
12,QQGI,≤ 0.2
13,HITG,≤ 0.2
14,CKQS,≤ 0.2
15,RRKW,≤ 0.2
16,RVDM,0.258
17,ECHS,≤ 0.2
18,TIKN,≤ 0.2
19,TCTT,≤ 0.2
20,MIRF,≤ 0.2
21,TYMR,≤ 0.2
22,FGLV,≤ 0.2
23,KLAM,≤ 0.2
24,RFFL,≤ 0.2

row,Variant,one-hybrid fitness for binding parS DNA
1,AGSN,≤ 0.2
2,YQVG,≤ 0.2
3,AIGR,≤ 0.2
4,RWYP,≤ 0.2
5,NTRG,≤ 0.2
6,YEAG,≤ 0.2
7,IAGT,≤ 0.2
8,RDTP,≤ 0.2
9,QPLL,≤ 0.2
10,TTFM,≤ 0.2
11,GFTT,≤ 0.2
12,EACS,≤ 0.2
13,HIII,≤ 0.2
14,FMLR,≤ 0.2
15,PDIW,≤ 0.2
16,PWSM,≤ 0.2
17,MESG,≤ 0.2
18,PPPW,≤ 0.2
19,DWKG,≤ 0.2
20,YWCR,≤ 0.2
21,MVLT,≤ 0.2
22,NKYQ,≤ 0.2
23,HDDF,≤ 0.2
24,RHDI,≤ 0.2

row,Variant,one-hybrid fitness for binding parS DNA
1,WVHS,≤ 0.2
2,KRSI,≤ 0.2
3,RIGH,0.246
4,FLRL,≤ 0.2
5,VTRE,≤ 0.2
6,HCDK,≤ 0.2
7,RCYW,0.314
8,MQTG,≤ 0.2
9,KHKT,≤ 0.2
10,VKQH,≤ 0.2
11,IYLD,≤ 0.2
12,NRQA,≤ 0.2
13,LRQH,≤ 0.2
14,HTKW,≤ 0.2
15,SVCS,≤ 0.2
16,NTNA,≤ 0.2
17,GARA,≤ 0.2
18,LKNS,≤ 0.2
19,FTHP,≤ 0.2
20,PFWS,≤ 0.2
21,PTSI,≤ 0.2
22,THYG,≤ 0.2
23,GHTL,≤ 0.2
24,WLMC,≤ 0.2

row,Variant,one-hybrid fitness for binding parS DNA
1,RYCR,≤ 0.2
2,YTKY,≤ 0.2
3,DAPG,≤ 0.2
4,DYPW,≤ 0.2
5,RKFP,≤ 0.2
6,IFNL,≤ 0.2
7,AGSC,≤ 0.2
8,QMNH,≤ 0.2
9,HPIM,≤ 0.2
10,RERL,≤ 0.2
11,QCNR,≤ 0.2
12,NPRQ,≤ 0.2
13,MRLT,≤ 0.2
14,RKYR,≤ 0.2
15,PAFV,≤ 0.2
16,AVIT,≤ 0.2
17,DSDG,≤ 0.2
18,VLGR,≤ 0.2
19,WSYF,≤ 0.2
20,TNGG,≤ 0.2
21,YDIG,≤ 0.2
22,MTMG,≤ 0.2
23,QRDQ,≤ 0.2
24,TSCS,≤ 0.2

row,Variant,one-hybrid fitness for binding parS DNA
1,QKDE,≤ 0.2
2,ETQS,≤ 0.2
3,EHWS,≤ 0.2
4,CCNG,≤ 0.2
5,QYPS,≤ 0.2
6,KNRT,≤ 0.2
7,RYGW,≤ 0.2
8,DWGT,≤ 0.2
9,VRHE,≤ 0.2
10,PYCM,≤ 0.2
11,ITEW,≤ 0.2
12,NTWK,≤ 0.2
13,YSKI,≤ 0.2
14,TSLR,≤ 0.2
15,HRTA,≤ 0.2
16,YHRS,≤ 0.2
17,QNSC,≤ 0.2
18,CFYT,≤ 0.2
19,PQCP,≤ 0.2
20,RFLN,0.415
21,CGQC,≤ 0.2
22,RTKS,0.815
23,QYFN,≤ 0.2
24,RPDW,≤ 0.2

row,Variant,one-hybrid fitness for binding parS DNA
1,HALM,≤ 0.2
2,GQCG,≤ 0.2
3,HDSC,≤ 0.2
4,AIRP,≤ 0.2
5,AVDS,≤ 0.2
6,GLWQ,≤ 0.2
7,ASDS,≤ 0.2
8,FSNM,≤ 0.2
9,VTAA,≤ 0.2
10,WRDA,≤ 0.2
11,RGKW,0.232
12,GTTC,≤ 0.2
13,MRFG,≤ 0.2
14,QVGE,≤ 0.2
15,PANS,≤ 0.2
16,HRFW,≤ 0.2
17,MQDS,≤ 0.2
18,PNMI,≤ 0.2
19,YVLL,≤ 0.2
20,QALT,≤ 0.2
21,RNKP,≤ 0.2
22,VMCC,≤ 0.2
23,NSTH,≤ 0.2
24,LPRD,≤ 0.2

row,Variant,one-hybrid fitness for binding parS DNA
1,DFKS,≤ 0.2
2,LLRY,≤ 0.2
3,WDNR,≤ 0.2
4,GTKF,≤ 0.2
5,WNAN,≤ 0.2
6,GVGR,≤ 0.2
7,TMKS,≤ 0.2
8,QSSQ,≤ 0.2
9,SILV,≤ 0.2
10,AKHS,≤ 0.2
11,NAIR,≤ 0.2
12,PRFD,≤ 0.2
13,PTCN,≤ 0.2
14,FGVR,≤ 0.2
15,PSST,≤ 0.2
16,NTLY,≤ 0.2
17,SFRP,0.209
18,NGPW,≤ 0.2
19,STSQ,≤ 0.2
20,ANVS,≤ 0.2
21,EGNT,≤ 0.2
22,KDCT,≤ 0.2
23,DPAV,≤ 0.2
24,SEMH,0.329

row,Variant,one-hybrid fitness for binding parS DNA
1,AFRF,≤ 0.2
2,VVLF,≤ 0.2
3,RHFN,0.319
4,RWTS,0.956
5,QTKV,≤ 0.2
6,RHQW,≤ 0.2
7,ENPC,≤ 0.2
8,QCWI,≤ 0.2
9,RLEG,0.925
10,KYKT,≤ 0.2
11,IEEG,≤ 0.2
12,QPTV,≤ 0.2
13,MGNE,≤ 0.2
14,NNDT,≤ 0.2
15,HETT,≤ 0.2
16,LMCS,≤ 0.2
17,AWAN,≤ 0.2
18,EFEV,≤ 0.2
19,TYDG,≤ 0.2
20,REPN,≤ 0.2
21,VTWT,≤ 0.2
22,YCPT,≤ 0.2
23,QIKI,≤ 0.2
24,KYRE,≤ 0.2

row,Variant,one-hybrid fitness for binding parS DNA
1,RMVH,≤ 0.2
2,PKTK,≤ 0.2
3,TEQG,≤ 0.2
4,LLVF,≤ 0.2
5,GLNN,≤ 0.2
6,TKDT,≤ 0.2
7,FKMI,≤ 0.2
8,RLYP,≤ 0.2
9,VIEF,≤ 0.2
10,QIYR,≤ 0.2
11,MFCV,≤ 0.2
12,AKCT,≤ 0.2
13,MCGC,≤ 0.2
14,MILG,≤ 0.2
15,TRNA,≤ 0.2
16,QSSH,≤ 0.2
17,ERVA,≤ 0.2
18,VDQT,≤ 0.2
